The source holds more than one record for some entries. The other results are left out here. An entry can have further records. Values given together repeat one measurement (runs, samples, wells, individuals or studies). Marks such as (2×) say how often a value occurs here.
System: 598228-144-R-J1-PDC complex spheroid viability
Assay: Anticancer human tumor 598228-144-R-J1-PDC patient-derived serous endometrial adenocarcinoma cell line growth inhibition [GQUAD]
Conditions: for viability, T/C: stronger effect = lower value; for IC50: compound alone
Excerpt: DNA G-quadruplex Stabilizer Agents in Combinations in Complex Spheroids
A high-throughput screen of multi-cell type tumor spheroids was designed to identify active combinations of DNA G-quadruplex stabilizer agents and targeted small molecules. Complex spheroids include a stromal component modeled by human endothelial cells (HUVEC) and fibroblasts modeled by human mesenchymal stem cells (MSCs). The concentration ranges selected for each drug and investigational agent were based upon clinically achievable concentrations if the clinical Cmax of the agent was known.
Compounds. The drugs and investigational agents: pidnarulex (CX-5461; NSC782164), APTO-253 (NSC789042), BRACO-19 (NSC847499), peposertib (NSC802822), ceralasertib (NSC780249), elimusertib (NSC800525), camonsertib (NSC841442), AZD-1390 (NSC803789), olaparib (NSC753686), talazoparib (NSC767125), ART-558 (NSC835418), sotorasib (NSC818433), MRTX-1133 (NSC836407), SN-38 (NSC673596), topotecan (NSC609699), etoposide (NSC141540), doxorubicin (NSC123127), gemcitabine (NSC613327), 5-fluorouracil (NSC19893), paclitaxel (NSC125973), vemurafenib (NSC761431), panobinostat (NSC761190), R-306465 (JNJ-16241199; NSC773264), adavosertib (NSC754352), TP-3654 (NSC805149), carboplatin (NSC241240), KSQ-4279 (NSC840948), and staurosporine (NSC755774) were obtained from the National Cancer Institute (NCI) Developmental Therapeutics Program Chemical Repository (34). The FDA-approved anticancer drug set is available from the NCI Developmental Therapeutics Program. […] The stock solutions were prepared in dimethyl sulfoxide (DMSO, Sigma-Aldrich, St. Louis, MO, cat. D2650) at 800-fold the tested concentration and stored at -70 degrees C prior to their use. All drugs and investigational agents were tested over a range starting from a high concentration at or near the clinical Cmax and decreasing in half-log increments. If the clinical Cmax for an agent had not been determined, the highest concentration tested was 10 microM.
2.3 Cell Culture. All cells were maintained in an incubator at 37 degrees C and 5% CO2 with 95% humidity. The PDC lines were cultured according to standard operating procedures established by the NCI PDMR. All PDCs were thawed and cultured in Matrigel-coated flasks prepared with a working solution of 1X Ham's F-12 nutrient mix, without supplementation (Invitrogen, cat. 11765054), 100 U/mL penicillin-streptomycin (Invitrogen, cat. 15140122), and 2.5% Matrigel (Corning Inc., cat. 354248) for the first three passages. The 857933-349-R-J2-PDC line was cultured in 6C/Colon 1B media, which includes advanced DMEM/F-12 (Thermo Fisher Scientific, cat. 12634028), 10 mM HEPES (Thermo Fisher Scientific, cat. 15630080), 1X GlutaMAX supplement (Thermo Fisher Scientific, cat. 35050061), 0.1 mg/mL primocin (InvivoGen, cat. ant-pm-2), 10% defined fetal bovine serum, heat inactivated (HyClone Laboratories Inc., cat. SH30070.03HI), 50% L-WRN conditioned media (ATCC, cat. CRL-3276), 1.25 mM N-Acetyl-L-cysteine (Sigma-Aldrich, cat. A9165), 10 mM nicotinamide (Sigma-Aldrich, cat. N0636), 1X B-27 supplement (Thermo Fisher Scientific, cat. 17504044), 1X N-2 supplement (Thermo Fisher Scientific, cat. 17502048), 10 microM Y-27632 dihydrochloride (Tocris Bioscience, cat. 1254), and 50 ng/mL human EGF recombinant protein (Thermo Fisher Scientific, cat. PHG0311). The 485176-168-R4-J1-PDC line was cultured in Panc media, which includes all 6C/Colon 1B media components plus 100 ng/mL human FGF-10 (Thermo Fisher Scientific, cat. 100-26), 500 nM SB-431542 (Selleckchem, cat. S1067), and gastrin (Tocris, cat. 3006).
[…]
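Note: spheroids exposed to the agents for one week before reading.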
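Throughout, for viability, T/C: percent of vehicle DMSO control viability so 100% = untreated growth.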

`Cc1[nH]c2ccc(F)cc2c1-c1nc2c3cccnc3c3ncccc3c2[nH]1` was tested, and the viability, T/C (compound alone 0.1 µM) was 103, 92.8, 98.8, 89.6, 122, 76.5, 89.7, 99.4, 92.1, 105, 108, 114%, the viability, T/C (compound alone 0.316 µM) was 101, 94.6, 78, 69.1, 81.3, 88.2, 95.2, 87.2, 89.1, 99, 98.9, 104% and the viability, T/C (compound alone 1 µM) was 60.8, 71.5, 58.2, 57.8, 62.1, 56.8, 58.8, 64.1, 61.2, 70.2, 88.6, 62.6%.
`C=CCn1c(=O)c2cnc(Nc3ccc(N4CCN(C)CC4)cc3)nc2n1-c1cccc(C(C)(C)O)n1` was tested, and the IC50 was > 10 µM, 2.45 µM, 784 nM.
With `Cc1cnc(CNC(=O)c2c(=O)c3ccc(N4CCCN(C)CC4)nc3n3c2sc2ccccc23)cn1` the viability, T/C (compound alone 0.0316 µM) was 98.6, 89.8, 94.7, 84.8, 78.4, 77.5, 83.3, 71.5, 98.3, 83, 81.1, 93.1%, the viability, T/C (compound alone 0.316 µM) was 71.7, 83.9, 84.7, 75.5, 67.5 (2×), 68.8 (2×), 68.3, 56.7, 62.9, 70.5% and the viability, T/C (compound alone 10 µM) was 64, 54.4, 51.8, 42.9, 45, 18.4, 12.9, 43.1, 49.9, 29.4, 26.6, 33.8%. For the same molecule, the IC50 (run of 03/18/2024) was 5.6 µM, 5 µM, 3.97 µM, 2.37 µM, 5.06 µM, > 10 µM, 3.84 µM, 4.17 µM, 4.15 µM.
With `CN(C)c1ccc(Nc2c3ccc(NC(=O)CCN4CCCC4)cc3nc3cc(NC(=O)CCN4CCCC4)ccc23)cc1` the viability, T/C (compound alone 0.316 µM) was 97.2, 114, 96.8, 111, 104, 105, 97.9, 109, 93.3, 118, 108, 119%.

From PubChem BioAssay AID2060506 (Molecular Pharmacology Branch, DTP, NCI, 2025)
